# The supplement of paper PMC5499739
# Whole data set: some 16,000 sequences, median “Z-score” near -0.37, cut for the highest 2% near 3.2. The list shows a part of the results.
# Test system: RBM10 RRM1-ZnF (GST-tagged construct)
# Experiment: RNAcompete 7-mer binding Z-score; higher = stronger binding preference
# Method in brief: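 GST-tagged RBM10 constructs (20 pmol) were mixed with a designed pool of 241 399 RNAs up to 41 nt (1.5 nmol), transcribed from microarray-derived DNA templates. Mixing was in 1 ml Hepes pH 7.8 buffer with KCl, NaCl, glycerol, DTT, BSA and glutathione Sepharose beads. Binding ran 30 min at 4°C, followed by four 2-min washes at 4°C, and bound RNA was identified by microarray hybridisation. Each heptamer motif received a one-sided Z-score for enrichment across probes containing it.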
row,Sequence,RNAcompete 7-mer binding Z-score
1,GGCCAAU,-0.305
2,ACUGCAA,-0.642
3,UUCUCGG,-0.425
4,AGGUUGC,0.781
5,GAUCCUU,-0.821
6,CUAACCU,-0.798
7,GUCAGUU,-0.383
8,UCUCGGG,0.095
9,GGGGGCC,1.44
10,GUACCCA,-0.759
11,GGGACGG,3.45
12,UGCAAGG,1.49
13,CACUCUA,-0.789
14,CCCGCGC,-0.181
15,CCCUUCC,-0.552
16,UUUCUAG,-0.681
17,CUUAGAG,-0.324
18,GGCGUAU,0.131
19,UGUCAGC,-0.314
20,AUAACGU,-0.194
21,CGUAGUC,-0.506
22,AUCACAC,-0.574
23,CUCAACA,-0.652

row,Sequence,RNAcompete 7-mer binding Z-score
1,UGGUGAC,1.08
2,AGUCUGA,-0.444
3,AAAAAAU,-0.223
4,AGUGAGU,0.673
5,GUACAUC,-0.305
6,CUUUAGU,-0.802
7,UACAGAU,-0.256
8,UGAUAUA,-0.162
9,AGGUUAU,0.751
10,GGAUCGC,0.355
11,UCGAAUC,-0.675
12,GGACGGA,2.32
13,UGCUGAC,0.176
14,GGUCCGC,-0.168
15,GGUGGUU,2.61
16,UGUCAUU,-0.714
17,UGUGACG,0.423
18,GAAUCCG,-0.337
19,GGCAAUA,0.0885
20,ACGUGCU,-0.509
21,CUAGUCG,-0.431
22,GCCGUGG,1.11
23,GGACCCG,0.345

row,Sequence,RNAcompete 7-mer binding Z-score
1,AUCUCGU,-0.782
2,ACGAACA,-0.298
3,GCUGAUA,-0.035
4,GGGGGCG,2.47
5,CGCGCAG,0.218
6,AACUUAU,-0.633
7,AACGGAC,0.413
8,AAGACAA,0.0593
9,AAAUGAU,-0.022
10,ACGCCUU,-0.87
11,UCACUUG,-0.665
12,GAGACGC,0.0593
13,AGAAGGG,3.86
14,ACAGGCA,0.699
15,UAAAUGA,-0.318
16,GCCUCGA,-0.5
17,CGAUCCU,-0.86
18,AAUUGUA,-0.272
19,UCACCGA,-0.636
20,GAUAGCA,0.287
21,CUCCGGC,-0.587
22,GCCAUUU,-1.02
23,CUGACCG,-0.539

row,Sequence,RNAcompete 7-mer binding Z-score
1,UAUCGCA,-0.513
2,UCAGCGA,-0.532
3,UAUCAGU,-0.431
4,UAGAGCG,0.677
5,CGUUAAA,-0.522
6,UUUAGAC,-0.649
7,CAAAGGA,0.992
8,GCAUGGG,2.76
9,GGCUGAA,0.706
10,CUUGUUA,-0.698
11,UAAGCCA,-0.753
12,AGCGUGA,0.332
13,UGCCACA,-0.35
14,UGUUGCC,-0.457
15,UCCGGUA,-0.337
16,AGUUGAG,1.05
17,CCCCAAU,-0.532
18,CCUACGG,-0.295
19,AUAGAAU,-0.132
20,AUCAAGU,-0.36
21,CGUUCCU,-0.811
22,CACCGUC,-0.464
23,GAGCUGG,1.88

row,Sequence,RNAcompete 7-mer binding Z-score
1,AUCUAUC,-0.688
2,GUAGUUA,0.128
3,ACUCUAC,-0.753
4,GAGGAGU,1.54
5,GAGCGUG,0.972
6,AGCGACC,-0.334
7,UUUAGAU,-0.448
8,ACUACCA,-0.681
9,GCGUGAA,0.485
10,UCAAGCU,-0.717
11,CCGUUGU,-0.548
12,CCGACGU,-0.272
13,UAGGCCC,-0.474
14,CGAGAGA,0.563
15,ACUAAAC,-0.662
16,AUACGGC,0.0593
17,GCGAGUG,1.59
18,CAUUGCC,-0.915
19,ACCCAAU,-0.678
20,GUCUUGU,-0.422
21,GCUAAGG,1.09
22,ACGUGUC,-0.574
23,CUUGCCC,-0.724

row,Sequence,RNAcompete 7-mer binding Z-score
1,GACCUCU,-0.876
2,UGCAAGA,-0.0317
3,GUAUAUU,-0.191
4,AAGGUGG,4.39
5,GUCAAAC,-0.474
6,GUCGAAA,-0.126
7,UUAUACC,-0.834
8,AUAGCCC,-0.714
9,AGGUAAU,1.32
10,GGGUAGG,4.65
11,AACCUCC,-0.743
12,UAGCACA,-0.373
13,CAGAUUA,-0.347
14,AUUAGUU,-0.441
15,GGGUUAC,2.16
16,CUGACAC,-0.659
17,GACGCAA,-0.243
18,UAUGUCC,-0.776
19,CCUCAAC,-0.818
20,GCGCGGG,1.8
21,ACCAAAC,-0.646
22,UUUCCGA,-0.646
23,UGCGCUC,-0.578

row,Sequence,RNAcompete 7-mer binding Z-score
1,AGUAAUA,-0.285
2,AUAGAGG,1.55
3,ACAAGUA,-0.201
4,GGGUGAA,3.87
5,GACGGUU,0.982
6,AAAGAGA,0.865
7,AACAUUA,-0.389
8,CCACCAU,-0.535
9,UGGCGGU,1.49
10,UACCUAG,-0.766
11,AUUAACC,-0.646
12,GCGACUG,-0.0479
13,GCGUUGG,1.4
14,UAUCGGU,-0.194
15,ACGGGGU,4.07
16,ACGGUGC,0.391
17,UGUGUCC,-0.415
18,CCACUCC,-0.662
19,GACGGAU,1.09
20,CAAAGCG,-0.0902
21,CGUUAGG,0.465
22,ACCAGAA,-0.253
23,CGGUACU,-0.162

row,Sequence,RNAcompete 7-mer binding Z-score
1,UACAUGU,-0.162
2,CGUCAGA,-0.548
3,UAUUACG,-0.132
4,ACCCCAC,-0.379
5,CACGUGU,-0.522
6,AGCCCCC,-0.129
7,GCUAUUG,-0.405
8,GCGAAUA,-0.0317
9,UAUUUGG,-0.0999
10,GGUAGAC,1.99
11,CCUCAGA,-0.629
12,CACAUUC,-0.698
13,CUUUUCC,-0.893
14,CGGCAUG,0.342
15,GCCUUGU,-0.717
16,CUAACAU,-0.636
17,CGCCACU,-0.604
18,ACGGUCA,0.163
19,CGGGCUA,0.599
20,CUGAAGU,-0.266
21,UUGCUUA,-0.737
22,UGCCGGG,0.527
23,ACCUAAC,-0.802
